Test results taken from the supplement of paper PMC8512760.
This is one part of the list. Most values come without repeats; read them as rough.

What was measured:
Experiment in all cases: cell viability relative to vehicle (% of vehicle); basal-like triple-negative breast cancer lines; higher = less cytotoxic
Details in all cases: 10 µM; 72 h
HCC-1143 = system: HCC-1143
HCC-1187 = system: HCC-1187
MDA-468 = system: MDA-468
SUM-149 = system: SUM-149
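Further: stably firefly luciferase-GFP labeled cells in 96-well plates, viability read as luciferase photon flux after d-luciferin addition, treated wells normalized to vehicle wells, single-dose high-throughput screen.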

Structure (SMILES) | cell viability (HCC-1143) | cell viability (HCC-1187) | cell viability (MDA-468) | cell viability (SUM-149)
Cc1cnc(C(=O)NCCc2ccc(S(=O)(=O)NC(=O)NC3CCCCC3)cc2)cn1 [Glipizide] | 83.4 | 80 | 102 | 110
Clc1ccc2nsnc2c1NC1=NCCN1 [Tizanidine] | 80.6 | 77.3 | 121 | 128
CS(=O)(=O)CCNCc1ccc(-c2ccc3ncnc(Nc4ccc(OCc5cccc(F)c5)c(Cl)c4)c3c2)o1.Cc1ccc(S(=O)(=O)O)cc1.Cc1ccc(S(=O)(=O)O)cc1 [Lapatinib Ditosylate] | 98.6 | 73.4 | 54.9 | 59.5
NC(=O)c1cccnc1 [Nicotinamide] | 70 | 69.8 | 111 | 111
CC(O)C(=O)O.CCOc1ccc2nc3cc(N)ccc3c(N)c2c1.O [Ethacridine lactate monohydrate] | 46.3 | 28.3 | 50.5 | 87.5
Nc1nc(=O)c2ncn(COC(CO)CO)c2[nH]1 [Ganciclovir] | 89.9 | 116 | 149 | 159
CCC(=O)OCC(=O)C1(OC(=O)CC)C(C)CC2C3CCC4=CC(=O)C=CC4(C)C3(F)C(O)CC21C (stereo not given) [Betamethasone Dipropionate] | 85.9 | 136 | 172 | 176
C=C1CCN(C(C)C(O)(Cn2cncn2)c2ccc(F)cc2F)CC1 (stereo not given) [Efinaconazole] | 97.8 | 94.2 | 104 | 108
CC/C(=C(\c1ccccc1)c1ccc(OCCN(C)C)cc1)c1ccccc1 [Tamoxifen] | 80.4 | 102 | 128 | 125
NCCCCC(NC(CCc1ccccc1)C(=O)O)C(=O)N1CCCC1C(=O)O.O.O (stereo not given) [Lisinopril dihydrate] | 81.1 | 109 | 120 | 105
